The text below walks through data of PubChem BioAssay AID1745853 (National Center for Advancing Translational Sciences (NCATS), 2022).

Common to all, as to assay: Primary Screen for Target Class Profiling of Small Molecule Inhibitors of Methyltransferases
The target of experiment [1] is Glycine N-methyltransferase (Homo sapiens) (UniProt Q14749). As to conditions: purified enzyme, MTase-Glo SAH luminescence; measured here: GNMT inhibition; at 40 µM; stronger effect = lower value. In a few lines:
(§1)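 Each enzyme was reacted with SAM and its substrate, with compounds tested once at 40 uM; SAH formed was read by MTase-Glo luminescence.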

The target of experiment [2] is Guanidinoacetate N-methyltransferase (Homo sapiens) (UniProt Q14353). Conditions: purified enzyme, MTase-Glo SAH luminescence; measured here: GAMT inhibition; at 40 µM; stronger effect = lower value. In a few lines:
as §1

Experiment [3] addresses Histamine N-methyltransferase (Homo sapiens) (UniProt P50135). As to conditions: purified enzyme, MTase-Glo SAH luminescence; measured here: HNMT inhibition; at 40 µM; stronger effect = lower value. An outline of the steps: as §1
Experiment [4] addresses Nicotinamide N-methyltransferase (Homo sapiens) (UniProt P40261). As to conditions: purified enzyme, MTase-Glo SAH luminescence; measured here: NNMT inhibition; at 40 µM; stronger effect = lower value. In a few lines: as §1
Experiment [5] deals with Phenylethanolamine N-methyltransferase (Homo sapiens) (UniProt P11086). Conditions: purified enzyme, MTase-Glo SAH luminescence; measured here: PNMT inhibition; at 40 µM; stronger effect = lower value. An outline of the steps: as §1

Some of the results follow. The main result of the screen is listed elsewhere. These columns were measured beside it and carry no call.
% is set by controls: 0 for no effect and ±100 for the full control effect.

As to `COCCO[C@H]1C(=O)N(C2CCN(C(=O)c3cnccn3)CC2)[C@H]1c1ccncc1`, the activity change, negative = inhibition in experiment [1] is -2.8%; in experiment [2] it was -3.09%; in experiment [3], -0.644%; in experiment [4], -3.61%; in experiment [5], 14.1%.

Take `Cc1cc2c(cc3n2CC(C)(C(=O)NC2CCCCCC2)N(CC(C)c2ccccc2)C3=O)o1` (stereo not given): the activity change, negative = inhibition in experiment [1] was -0.178%; in experiment [2] it was 1.34%; in experiment [3], 2.81%; in experiment [4] it was 3.92%; in experiment [5] it was -1.45%.

As for `Cc1cc(C)c(S(=O)(=O)c2nnn3c2nc(NCCCOC(C)C)c2ccccc23)c(C)c1`, the activity change, negative = inhibition in experiment [1] is -4.43%; in experiment [2], 4.83%; in experiment [3], 3.31%; in experiment [4], -0.671%; in experiment [5] it was -4.5%.

`CC1CCC(NC(=O)c2cc3n(n2)CC(C)(C(=O)NC2CCCCCC2)N(C)C3=O)CC1` (stereo not given): the activity change, negative = inhibition in experiment [1] worked out at 6.46%; in experiment [2] it was 0%; in experiment [3], 3.64%; in experiment [4], 6.05%; in experiment [5], 4.53%.

`Cc1c(Cl)cccc1NC(=O)Cn1c(=O)oc2cc(S(=O)(=O)N3CCCC3)ccc21`: the activity change, negative = inhibition in experiment [1] was -6.18%; in experiment [2] it was 1.59%; in experiment [3] it was -6.97%; in experiment [4], -14.2%; in experiment [5], -12.7%.

Turning to `CCOCC(=O)N[C@@H]1CN(Cc2ccccc2)C[C@H]1CN(C)C`, the activity change, negative = inhibition in experiment [1] is -0.005%; in experiment [2], 0.813%; in experiment [3], 1.16%; in experiment [4], -4.85%; in experiment [5] it was 11.1%.

Regarding `Cc1ccc(NC(=O)CSc2nnc3[nH]c(=O)c(C(C)(C)C)nn23)c(C)c1`, the activity change, negative = inhibition in experiment [1] is 7.07%; in experiment [2], 0%; in experiment [3] it was 9.4%; in experiment [4], 0.365%; in experiment [5], 1.47%.

Consider `CCC(CC)n1c(=O)n(CCCc2cccnc2)c2cc(C(=O)O)cnc21`, for which the activity change, negative = inhibition was -2.27% in experiment [1]; -1.76% in experiment [2]; 0.597% in experiment [3]; -4.78% in experiment [4]; 0.433% in experiment [5].

Consider `Cc1cnn(CC(=O)N2CC(F)(F)C[C@H]2c2nc(C3CC3)no2)c1`, for which the activity change, negative = inhibition was -3.51% in experiment [1]; -5.88% in experiment [2]; -1.95% in experiment [3]; -9.44% in experiment [4]; -6.46% in experiment [5].

For `COc1cccc(CNC(=O)c2cc3n(n2)CC(C)(C(=O)NCc2ccc(C)cc2)N(C)C3=O)c1OC` (stereo not given), the activity change, negative = inhibition is 1.67% in experiment [1]; 2.54% in experiment [2]; 2.28% in experiment [3]; -1.41% in experiment [4]; -0.743% in experiment [5].

For the compound `CCOc1ccc(CN2C(=O)c3cc4ccc(OC)cc4n3CC2(C)C(=O)NC2CCCC2)cc1` (stereo not given), the activity change, negative = inhibition amounted to 4.81% in experiment [1]; 4.09% in experiment [2]; 9.72% in experiment [3]; 7.34% in experiment [4]; 3.19% in experiment [5].

For the compound `CCCC1c2cccn2CCN1C(=O)Nc1ccc(F)cc1` (stereo not given), the activity change, negative = inhibition is -0.903% in experiment [1]; 0.756% in experiment [2]; -14.3% in experiment [3]; 0.44% in experiment [4]; -0.577% in experiment [5].

As to `CC(C)(O)/C=C/CC(C)(O)C1C(O)CC2(C)C3CCC4C(C)(C)C(=O)CCC4(C)C3CCC12C` (stereo not given), the activity change, negative = inhibition in experiment [1] is -0.604%; in experiment [2] it was 4.47%; in experiment [3] it was 2.87%; in experiment [4], -10.6%; in experiment [5] it was 3.83%.

For the compound `COc1ccccc1N1CCN(C(=O)CCCc2nnc3n4nc(-c5ccccc5)nc4c4ccccc4n23)CC1`, the activity change, negative = inhibition in experiment [1] was 0.593%; in experiment [2], 0.55%; in experiment [3] it was 0.376%; in experiment [4], 3.97%; in experiment [5], -2.41%.

As for `Cc1ccc(CNC(=O)C2(C)Cn3nc(C(=O)NCc4ccccc4)cc3C(=O)N2C)cc1` (stereo not given), the activity change, negative = inhibition was determined as 6.04% in experiment [1]; 0.048% in experiment [2]; 0.786% in experiment [3]; 12.9% in experiment [4]; 5.41% in experiment [5].

`CCN1CCN(c2nc3c(s2)CN(Cc2ccccn2)CC3)CC1`: the activity change, negative = inhibition in experiment [1] is -4.2%; in experiment [2] it was -2.01%; in experiment [3], -12.3%; in experiment [4], -6.66%; in experiment [5], -2.46%.

Regarding `CCc1cccc(C)c1NC(=O)c1ncn2c1C(=O)N(C1CC1)C(C)(C(=O)NCc1ccc(F)cc1)C2` (stereo not given), the activity change, negative = inhibition turned out to be 4.62% in experiment [1]; 0% in experiment [2]; 12.8% in experiment [3]; 7.91% in experiment [4]; 8.82% in experiment [5].

As to `Cc1ccc(-c2nnn3c2nc(N2CCCCC2)c2ccccc23)cc1`, the activity change, negative = inhibition in experiment [1] was 2.44%; in experiment [2] it was 0.251%; in experiment [3], 10.1%; in experiment [4], 13.7%; in experiment [5], 2.42%.

Consider `COc1ccc(-c2nnc(-c3ccc(OC)c(S(=O)(=O)N4CCCCC4)c3)o2)cc1OC`, for which the activity change, negative = inhibition in experiment [1] is -18.7%; in experiment [2], 1.99%; in experiment [3], -10.4%; in experiment [4] it was -12.8%; in experiment [5] it was -5.93%.

Regarding `CCOc1ccc(N(C(=O)C(C)C)S(=O)(=O)c2ccc3c(c2)n(C)c(=O)n3C)cc1`, the activity change, negative = inhibition came to 3.45% in experiment [1]; 0.122% in experiment [2]; 9.17% in experiment [3]; 4.6% in experiment [4]; 1.79% in experiment [5].

`CC1=C[C@@H](CO)[C@H](C(C)C)C[C@H]1CC(=O)NCc1cc(F)cc(F)c1`: the activity change, negative = inhibition in experiment [1] is -6.19%; in experiment [2], -4.82%; in experiment [3] it was -1.78%; in experiment [4], -8.38%; in experiment [5] it was -2.61%.

As to `CC(C)(C)OC(=O)c1ncn2c1C(C)(C)Nc1ccccc1-2`, the activity change, negative = inhibition in experiment [1] was -8.59%; in experiment [2], 5.98%; in experiment [3], 2.04%; in experiment [4], -10.3%; in experiment [5], 1.96%.

As for `COc1nc2ccc(Br)cc2cc1[C@@H](c1ccccc1)[C@@](O)(CCN(C)C)c1cccc2ccccc12`, the activity change, negative = inhibition in experiment [1] was -3.27%; in experiment [2] it was -26.1%; in experiment [3], -1.49%; in experiment [4], -26.8%; in experiment [5] it was -14.1%.

`CNc1cc2[nH]c(=O)n(-c3ccc(NC(=O)NS(=O)(=O)c4ccc(Cl)s4)cc3)c(=O)c2cc1F`: the activity change, negative = inhibition in experiment [1] was -0.493%; in experiment [2], -2.97%; in experiment [3], -2.61%; in experiment [4] it was -15.5%; in experiment [5], -13.3%.

Take `CC(=O)/C=C/[C@H]1[C@](C)(O)[C@@H](O)[C@H](O)C2C(C)(C)CCC[C@@]21C` (stereo not given in full): the activity change, negative = inhibition in experiment [1] is -5.05%; in experiment [2], -6.66%; in experiment [3] it was 3.36%; in experiment [4] it was -16.5%; in experiment [5] it was -9.71%.

As for `O=C(Cn1c(=O)oc2cc(S(=O)(=O)N3CCCC3)ccc21)NCCc1ccc(Cl)cc1`, the activity change, negative = inhibition in experiment [1] was 3.31%; in experiment [2], 0%; in experiment [3], 4.45%; in experiment [4], 6.85%; in experiment [5], -1.79%.

Turning to `C[C@@H](OC(=O)/C=C/c1ccc(O)cc1)C1=C[C@]2(C=C[C@@H]3C(C(=O)O)=CO[C@@H](O[C@@H]4O[C@H](CO[C@@H]5O[C@H](CO)[C@@H](O)[C@H](O)[C@H]5O)[C@@H](O)[C@H](O)[C@H]4O)[C@@H]32)OC1=O`, the activity change, negative = inhibition in experiment [1] was 5.12%; in experiment [2], 5.28%; in experiment [3] it was 6.5%; in experiment [4] it was -4.81%; in experiment [5], 3.17%.

Take `O=C(c1ccc(F)cc1)N1CCCC(C(=O)N2CCC(c3nc4ncccc4[nH]3)CC2)C1` (stereo not given): the activity change, negative = inhibition in experiment [1] is -6.88%; in experiment [2], -5.19%; in experiment [3] it was -4.64%; in experiment [4], -10.6%; in experiment [5] it was -10.1%.

Take `CC(=O)N[C@H]1[C@H](O[C@H]2CC[C@@]3(C)C(CC[C@]4(C)C3CC=C3C5CC(C)(C)CC[C@]5(C(=O)O)[C@H](O)C[C@]34C)C2(C)C)O[C@H](CO[C@@H]2OC[C@H](O)[C@H](O)[C@H]2O[C@@H]2OC[C@@H](O)[C@H](O)[C@H]2O)[C@@H](O)[C@@H]1O` (stereo not given in full): the activity change, negative = inhibition is 1.33% in experiment [1]; 2.55% in experiment [2]; 10.5% in experiment [3]; -12.2% in experiment [4]; -3.17% in experiment [5].

For `CN1c2cc(C(=O)NCc3ccccc3)ccc2C(=O)N2CCCC21` (stereo not given), the activity change, negative = inhibition is -4.64% in experiment [1]; 2.16% in experiment [2]; -3.42% in experiment [3]; 0.054% in experiment [4]; 14.2% in experiment [5].

As to `C[C@@H]1[C@H]2[C@H](O[C@@H]3O[C@H](CO)[C@@H](O)[C@H](O)[C@H]3O)OC=C(C(=O)O)[C@H]2C[C@@H]1OC(=O)/C=C/c1ccc(O)cc1`, the activity change, negative = inhibition in experiment [1] is 3.52%; in experiment [2] it was 4.57%; in experiment [3], 10.6%; in experiment [4] it was -8.18%; in experiment [5] it was 1.68%.

In the case of `C[C@@H]1C[C@H](O[C@@H]2O[C@H](CO[C@@H]3OC[C@](O)(CO)[C@H]3O)[C@@H](O)[C@H](O)[C@H]2O)CC(C)(C)[C@H]1/C=C/[C@@H](C)O`, the activity change, negative = inhibition in experiment [1] was 0.655%; in experiment [2] it was -2.6%; in experiment [3] it was 8.46%; in experiment [4] it was -15.1%; in experiment [5], 3.64%.

Consider `CCCn1c(=O)c2ccc(C(=O)NC(C)C)cc2n2c(=O)n(Cc3cccc(C)c3)nc12`, for which the activity change, negative = inhibition in experiment [1] is 0.516%; in experiment [2], 0.23%; in experiment [3] it was 7.12%; in experiment [4], -8.46%; in experiment [5] it was 4.28%.

In the case of `Cc1ccc(NC(=O)C2CCc3nnc(C4CCN(C(=O)NC(C)(C)C)CC4)n32)cc1` (stereo not given), the activity change, negative = inhibition was -2.51% in experiment [1]; -7.58% in experiment [2]; -1.47% in experiment [3]; -10.3% in experiment [4]; -2.97% in experiment [5].
